Measured values reported in patent US20250064952A1 (ACCELERON PHARMA, published 2025).

Columns and labels:
Assay in all cases: cell-based or functional assay
[1] = target: T1, BMP9 (UniProt Q9UK05 320-429)
T1 sequence (looked up): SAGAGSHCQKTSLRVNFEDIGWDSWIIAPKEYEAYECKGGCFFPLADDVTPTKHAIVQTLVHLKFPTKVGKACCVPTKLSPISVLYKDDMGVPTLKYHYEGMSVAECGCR

[2] = target: T2, GDF11 (UniProt O95390 299-407)
T2 sequence (looked up): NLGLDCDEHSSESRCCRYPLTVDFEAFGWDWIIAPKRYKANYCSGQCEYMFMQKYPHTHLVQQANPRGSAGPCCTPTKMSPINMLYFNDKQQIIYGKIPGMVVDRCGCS

[3] = target: T3, activin A (UniProt P08476 311-426)
T3 sequence (looked up): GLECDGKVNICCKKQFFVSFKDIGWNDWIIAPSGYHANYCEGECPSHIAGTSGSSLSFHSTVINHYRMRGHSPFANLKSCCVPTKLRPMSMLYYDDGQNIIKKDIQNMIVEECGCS

| IC50, A204 (CAGA)12 luciferase reporter [1] [µg/mL] | IC50, A204 (CAGA)12 luciferase reporter [2] [µg/mL] | IC50, A204 (CAGA)12 luciferase reporter [3] [µg/mL] | Binder |
| --- | --- | --- | --- |
| 0.277 | 0.009 | 0.011 | ActRIIB(F82I)-G1Fc (Fc fusion) GRGEAETRECIYYNANWELERTNQSGLERCEGEQDKRLHCYASWRNSSGTIELVKKGCWLDDINCYDRQECVATEENPQVYFCCCEGNFCNERFTHLPEAGGPEVTYEPPPTAPTG[sequence of human IgG1 Fc and a few adjoining residues omitted] |
| 5.5 | 0.365 | 0.396 | variant ActRIIB-Fc homodimer K55D (Fc fusion) GRGEAETRECIYYNANWELERTNQSGLERCEGEQDDRLHCYASWRNSSGTIELVKKGCWLDDFNCYDRQECVATEENPQVYFCCCEGNFCNERFTHLPEAGGPEVTYEPPPTAPTG[sequence of human IgG1 Fc and a few adjoining residues omitted] |
| – | 0.544 | – | variant ActRIIB-Fc homodimer Y60P (Fc fusion) GRGEAETRECIYYNANWELERTNQSGLERCEGEQDKRLHCPASWRNSSGTIELVKKGCWLDDFNCYDRQECVATEENPQVYFCCCEGNFCNERFTHLPEAGGPEVTYEPPPTAPTG[sequence of human IgG1 Fc and a few adjoining residues omitted] |
| – | 0.276 | – | variant ActRIIB-Fc homodimer F82W (Fc fusion) GRGEAETRECIYYNANWELERTNQSGLERCEGEQDKRLHCYASWRNSSGTIELVKKGCWLDDWNCYDRQECVATEENPQVYFCCCEGNFCNERFTHLPEAGGPEVTYEPPPTAPTG[sequence of human IgG1 Fc and a few adjoining residues omitted] |
| 1.21 | 0.591 | – | variant ActRIIB-Fc homodimer R40A (Fc fusion) GRGEAETRECIYYNANWELEATNQSGLERCEGEQDKRLHCYASWRNSSGTIELVKKGCWLDDFNCYDRQECVATEENPQVYFCCCEGNFCNERFTHLPEAGGPEVTYEPPPTAPTG[sequence of human IgG1 Fc and a few adjoining residues omitted] |
| ~40 | 0.389 | – | variant ActRIIB-Fc homodimer F82W/N83A (Fc fusion) GRGEAETRECIYYNANWELERTNQSGLERCEGEQDKRLHCYASWRNSSGTIELVKKGCWLDDWACYDRQECVATEENPQVYFCCCEGNFCNERFTHLPEAGGPEVTYEPPPTAPTG[sequence of human IgG1 Fc and a few adjoining residues omitted] |
| 0.721 | 0.18 | 0.132 | variant ActRIIB-Fc homodimer E50K (Fc fusion) GRGEAETRECIYYNANWELERTNQSGLERCKGEQDKRLHCYASWRNSSGTIELVKKGCWLDDFNCYDRQECVATEENPQVYFCCCEGNFCNERFTHLPEAGGPEVTYEPPPTAPTG[sequence of human IgG1 Fc and a few adjoining residues omitted] |
| ~3 | 0.638 | 0.756 | variant ActRIIB-Fc homodimer E50P (Fc fusion) GRGEAETRECIYYNANWELERTNQSGLERCPGEQDKRLHCYASWRNSSGTIELVKKGCWLDDFNCYDRQECVATEENPQVYFCCCEGNFCNERFTHLPEAGGPEVTYEPPPTAPTG[sequence of human IgG1 Fc and a few adjoining residues omitted] |
| 0.777 | 0.318 | 0.206 | variant ActRIIB-Fc homodimer K55R (Fc fusion) GRGEAETRECIYYNANWELERTNQSGLERCEGEQDRRLHCYASWRNSSGTIELVKKGCWLDDFNCYDRQECVATEENPQVYFCCCEGNFCNERFTHLPEAGGPEVTYEPPPTAPTG[sequence of human IgG1 Fc and a few adjoining residues omitted] |
| 0.409 | 0.099 | 0.128 | variant ActRIIB-Fc homodimer A24N (Fc fusion) GRGENETRECIYYNANWELERTNQSGLERCEGEQDKRLHCYASWRNSSGTIELVKKGCWLDDFNCYDRQECVATEENPQVYFCCCEGNFCNERFTHLPEAGGPEVTYEPPPTAPTG[sequence of human IgG1 Fc and a few adjoining residues omitted] |
| 0.359 | 0.071 | 0.198 | variant ActRIIB-Fc homodimer E52A (Fc fusion) GRGEAETRECIYYNANWELERTNQSGLERCEGAQDKRLHCYASWRNSSGTIELVKKGCWLDDFNCYDRQECVATEENPQVYFCCCEGNFCNERFTHLPEAGGPEVTYEPPPTAPTG[sequence of human IgG1 Fc and a few adjoining residues omitted] |
| – | 0.414 | – | variant ActRIIB-Fc homodimer Y60K (Fc fusion) GRGEAETRECIYYNANWELERTNQSGLERCEGEQDKRLHCKASWRNSSGTIELVKKGCWLDDFNCYDRQECVATEENPQVYFCCCEGNFCNERFTHLPEAGGPEVTYEPPPTAPTG[sequence of human IgG1 Fc and a few adjoining residues omitted] |
| – | 0.234 | – | variant ActRIIB-Fc homodimer L79R (Fc fusion) GRGEAETRECIYYNANWELERTNQSGLERCEGEQDKRLHCYASWRNSSGTIELVKKGCWRDDFNCYDRQECVATEENPQVYFCCCEGNFCNERFTHLPEAGGPEVTYEPPPTAPTG[sequence of human IgG1 Fc and a few adjoining residues omitted] |
| 0.165 | 0.045 | – | variant ActRIIB-Fc homodimer K74R (Fc fusion) GRGEAETRECIYYNANWELERTNQSGLERCEGEQDKRLHCYASWRNSSGTIELVRKGCWLDDFNCYDRQECVATEENPQVYFCCCEGNFCNERFTHLPEAGGPEVTYEPPPTAPTG[sequence of human IgG1 Fc and a few adjoining residues omitted] |
| ~10 | 0.296 | 0.762 | variant ActRIIB-Fc homodimer E52K (Fc fusion) GRGEAETRECIYYNANWELERTNQSGLERCEGKQDKRLHCYASWRNSSGTIELVKKGCWLDDFNCYDRQECVATEENPQVYFCCCEGNFCNERFTHLPEAGGPEVTYEPPPTAPTG[sequence of human IgG1 Fc and a few adjoining residues omitted] |
| 0.29 | 0.014 | 0.019 | ActRIIB(K55E)-G1Fc (Fc fusion) GRGEAETRECIYYNANWELERTNQSGLERCEGEQDERLHCYASWRNSSGTIELVKKGCWLDDFNCYDRQECVATEENPQVYFCCCEGNFCNERFTHLPEAGGPEVTYEPPPTAPTG[sequence of human IgG1 Fc and a few adjoining residues omitted] |
| 0.122 | 0.011 | 0.015 | ActRIIB(K55A)-G1Fc (Fc fusion) GRGEAETRECIYYNANWELERTNQSGLERCEGEQDARLHCYASWRNSSGTIELVKKGCWLDDFNCYDRQECVATEENPQVYFCCCEGNFCNERFTHLPEAGGPEVTYEPPPTAPTG[sequence of human IgG1 Fc and a few adjoining residues omitted] |
| – | 0.477 | – | variant ActRIIB-Fc homodimer L79K (Fc fusion) GRGEAETRECIYYNANWELERTNQSGLERCEGEQDKRLHCYASWRNSSGTIELVKKGCWKDDFNCYDRQECVATEENPQVYFCCCEGNFCNERFTHLPEAGGPEVTYEPPPTAPTG[sequence of human IgG1 Fc and a few adjoining residues omitted] |
| ~5 | 0.015 | 0.01 | ActRIIB(F82K)-G1Fc (Fc fusion) GRGEAETRECIYYNANWELERTNQSGLERCEGEQDKRLHCYASWRNSSGTIELVKKGCWLDDKNCYDRQECVATEENPQVYFCCCEGNFCNERFTHLPEAGGPEVTYEPPPTAPTG[sequence of human IgG1 Fc and a few adjoining residues omitted] |
